From the antibiotic and cytotoxicity screens of Wong et al. (2023) come the findings set out here.

Molecules are shown by their SMILES. The list shows a part of the results.

This assay deals with S. aureus RN4220. The assay can be described thus: growth inhibition call (relative growth <= 0.2). Particulars: 50 µM.
For the molecule `C[C@H](CO)N1C[C@H](C)[C@H](CN(C)S(=O)(=O)c2cn(C)cn2)Oc2ccc(NC(=O)Nc3ccc(F)cc3)cc2CC1=O`, the growth inhibition call is “inactive”.
The entry for `C[C@@H]1CCCCO[C@@H](CN(C)C(=O)c2ccccc2)[C@@H](C)CN([C@H](C)CO)C(=O)c2cc(NC(=O)Nc3ccccc3)ccc2O1` is “inactive”; for `Cc1noc(C)c1S(=O)(=O)Nc1ccc2c(c1)C(=O)N([C@H](C)CO)C[C@H](C)[C@H](CN(C)C)OCCCC[C@H](C)O2` it is “inactive”.
The result for `C[C@@H]1CCCCO[C@@H](CN(C)CC2CCCCC2)[C@H](C)CN([C@H](C)CO)C(=O)c2cc(NC(=O)Nc3ccccc3)ccc2O1` reads “inactive”.
With `CC(C)(O)[C@@H]1CC[C@]2(CO)[C@@H](O)CC[C@](C)(O)[C@H]2[C@@H]1O[C@@H]1O[C@H](CO)[C@@H](O)[C@H](O)[C@H]1O`, the growth inhibition call was “inactive”.
The result for `C[C@@H]1CN([C@H](C)CO)C(=O)Cc2cc(NS(C)(=O)=O)ccc2O[C@@H]1CN(C)C(=O)Nc1ccc(C(F)(F)F)cc1` reads “inactive”.
The entry for `Cc1noc(C)c1S(=O)(=O)Nc1ccc2c(c1)C(=O)N([C@@H](C)CO)C[C@@H](C)[C@H](CN(C)S(=O)(=O)c1ccccc1)O2` is “inactive”.
The entry for `CC(C)C#Cc1cnc2c(c1)C(=O)N([C@@H](C)CO)C[C@@H](C)[C@H](CN(C)C(=O)c1ccc3c(c1)OCO3)O2` is “inactive”; for `CO[C@@H]1CN(C)C(=O)c2cc(NC(=O)Nc3ccccc3F)ccc2OC[C@@H](C)N(C(=O)Nc2ccccc2F)C[C@H]1C` it is “inactive”.
Turning to `O=C1CSC(=S)N1`, the growth inhibition call was “inactive”.
The entry for `C[C@H](CO)N1C[C@H](C)[C@@H](CN(C)CC2CCCCC2)Oc2ccc(NC(=O)CCN3CCOCC3)cc2CC1=O` is “inactive”; for `Cc1noc(C)c1S(=O)(=O)Nc1ccc2c(c1)C(=O)N([C@@H](C)CO)C[C@H](C)[C@@H](CN(C)Cc1ccc(C(F)(F)F)cc1)OCCCC[C@H](C)O2` it is “inactive”; for `C[C@@H]1CN([C@H](C)CO)C(=O)c2cccc(NC(=O)Nc3ccc(C(F)(F)F)cc3)c2O[C@H]1CN(C)S(=O)(=O)c1ccc(F)cc1` it is “inactive”.
The result for `CCN1CCN(C(=O)NC(C(=O)NC2C(=O)N3C(C(=O)O)=C(CSc4nnnn4C)CSC23)c2ccc(O)cc2)C(=O)C1=O` (stereo not given) reads “active”.
In the case of `Cc1noc(C)c1NC(=O)Nc1ccc2c(c1)C(=O)N([C@@H](C)CO)C[C@@H](C)[C@H](CN(C)Cc1ccc(Cl)c(Cl)c1)OCCCC[C@@H](C)O2`, the growth inhibition call is “inactive”.
The result for `COc1cccc(NC(=O)C[C@@H]2CC[C@@H]3[C@@H](COc4ccc(NC(=O)C5CCOCC5)cc4C(=O)N3C)O2)c1` reads “inactive”; that for `C[C@@H]1CN([C@@H](C)CO)C(=O)Cc2cc(NC(=O)c3ccncc3)ccc2O[C@H]1CN(C)S(=O)(=O)c1cn(C)cn1`, “inactive”; that for `CCCCCN1CC=C[C@@]23O[C@@H]4C=CCOC(=O)[C@@H]4[C@H]2C(=O)N([C@@H](C)CO)[C@@H]3C1=O`, “inactive”.
The entry for `COc1ccc(NC(=O)N(C)C[C@H]2OCCCC[C@@H](C)Oc3ccc(NC(=O)Cc4ccccc4)cc3C(=O)N([C@@H](C)CO)C[C@@H]2C)cc1` is “inactive”.
The entry for `COc1ccccc1CNC(=O)C[C@H]1CC[C@@H]2[C@H](COC[C@@H](O)CN2C(=O)Nc2ccc(F)cc2)O1` is “inactive”; for `C[C@@H]1CN([C@@H](C)CO)C(=O)c2cc(NC(=O)Cn3cnnn3)ccc2O[C@@H]1CN(C)Cc1ccncc1` it is “inactive”; for `COc1cc(/C=C(\C#N)C(=O)Nc2nnc(C(F)(F)F)s2)ccc1OCc1ccc(C(F)(F)F)cc1C(F)(F)F` it is “inactive”.
Take `COc1ccc(S(=O)(=O)N(C)C[C@@H]2Oc3ccc(NS(=O)(=O)c4ccc(C)cc4)cc3CC(=O)N([C@@H](C)CO)C[C@@H]2C)cc1`: the growth inhibition call was “inactive”.
The entry for `Cc1noc(C)c1NC(=O)Nc1ccc2c(c1)C(=O)N([C@H](C)CO)C[C@H](C)[C@H](CN(C)Cc1ccc(C(=O)Nc3ccccc3N)cc1)O2` is “inactive”; for `CC(O)Cn1cnc2c1c(=O)n(C)c(=O)n2C` (stereo not given) it is “inactive”.
The entry for `C[C@H](CO)N1C[C@H](C)[C@H](CN(C)S(=O)(=O)c2ccccc2)Oc2ccc(NS(=O)(=O)c3ccccc3)cc2C1=O` is “inactive”; for `C[C@@H]1CCCCO[C@H](CN(C)Cc2ccc(C(=O)O)cc2)[C@H](C)CN([C@@H](C)CO)C(=O)c2cc(NC(=O)Nc3ccc4c(c3)OCO4)ccc2O1` it is “inactive”; for `COc1ccc(NC(=O)N(C)C[C@H]2OCCCC[C@H](C)Oc3ccc(NC(=O)Nc4ccc(C(F)(F)F)cc4)cc3C(=O)N([C@@H](C)CO)C[C@@H]2C)cc1` it is “inactive”.
The entry for `Cl.OC(c1cc(C(F)(F)F)nc2c(C(F)(F)F)cccc12)C1CCCCN1` (stereo not given) is “inactive”.
Turning to `COc1ccc(CN(C)C[C@@H]2OCCCC[C@H](C)Oc3ccc(NC(=O)Nc4ccccc4)cc3C(=O)N([C@H](C)CO)C[C@@H]2C)cc1`, the growth inhibition call was “inactive”.
